Patent US20080267971A1 (published 2008)
Numbering of substitutions follows the chain as printed.

Assays:
human Ang-2443 = biological target: T1, human Ang-2443 (human, UniProt O15123 19-496); assay: ELISA
T1 construct: Splice variant missing amino acids 96-148; supernatant of transfected 293F cells
T1 sequence: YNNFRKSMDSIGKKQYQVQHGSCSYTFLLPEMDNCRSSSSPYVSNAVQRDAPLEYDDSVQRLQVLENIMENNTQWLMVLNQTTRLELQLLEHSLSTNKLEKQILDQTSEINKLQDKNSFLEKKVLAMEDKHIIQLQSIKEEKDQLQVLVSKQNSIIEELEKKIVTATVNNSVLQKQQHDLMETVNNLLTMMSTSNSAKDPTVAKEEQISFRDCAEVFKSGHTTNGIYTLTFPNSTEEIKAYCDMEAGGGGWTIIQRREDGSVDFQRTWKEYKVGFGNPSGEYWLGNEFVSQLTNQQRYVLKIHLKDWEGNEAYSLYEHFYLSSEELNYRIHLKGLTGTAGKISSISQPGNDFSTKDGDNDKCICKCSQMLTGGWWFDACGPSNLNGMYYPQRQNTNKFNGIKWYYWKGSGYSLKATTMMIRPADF

[1] = biological target: T2, Human Ang-1/2 BsmI chimeric molecule (human); assay: ELISA
T2 chain: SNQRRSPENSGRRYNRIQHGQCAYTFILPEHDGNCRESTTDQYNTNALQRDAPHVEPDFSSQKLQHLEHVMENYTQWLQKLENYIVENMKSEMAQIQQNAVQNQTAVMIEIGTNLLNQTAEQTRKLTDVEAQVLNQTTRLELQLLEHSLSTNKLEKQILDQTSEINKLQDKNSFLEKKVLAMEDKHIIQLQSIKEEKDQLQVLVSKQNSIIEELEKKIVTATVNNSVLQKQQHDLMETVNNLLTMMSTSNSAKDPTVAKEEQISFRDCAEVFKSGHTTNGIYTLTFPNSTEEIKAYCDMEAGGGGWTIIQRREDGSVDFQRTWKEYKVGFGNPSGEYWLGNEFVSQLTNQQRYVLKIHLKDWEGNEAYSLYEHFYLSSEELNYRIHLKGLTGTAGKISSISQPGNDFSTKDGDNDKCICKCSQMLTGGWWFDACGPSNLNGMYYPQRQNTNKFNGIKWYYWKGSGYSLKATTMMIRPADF

[2] = biological target: T3, Mouse/Human Ang-2 StuI chimeric molecule (mouse; human, UniProt O35608 19-496); assay: ELISA
T3 construct: also called M/H Stul 310-496
T3 chain: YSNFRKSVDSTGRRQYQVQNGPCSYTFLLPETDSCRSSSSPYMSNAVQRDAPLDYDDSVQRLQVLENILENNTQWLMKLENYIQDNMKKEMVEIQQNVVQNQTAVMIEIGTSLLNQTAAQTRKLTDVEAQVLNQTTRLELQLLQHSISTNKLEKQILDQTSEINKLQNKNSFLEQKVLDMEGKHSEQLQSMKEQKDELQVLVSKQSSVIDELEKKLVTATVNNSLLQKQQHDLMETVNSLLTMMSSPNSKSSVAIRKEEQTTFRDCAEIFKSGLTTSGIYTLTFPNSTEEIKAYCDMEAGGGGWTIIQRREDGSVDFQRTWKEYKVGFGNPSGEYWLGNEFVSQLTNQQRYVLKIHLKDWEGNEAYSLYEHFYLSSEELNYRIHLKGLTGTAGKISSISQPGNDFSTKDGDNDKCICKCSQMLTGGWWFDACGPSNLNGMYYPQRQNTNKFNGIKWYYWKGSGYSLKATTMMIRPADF

[3] = biological target: T4, Mouse/Human chimeric Ang-2 with the human StuI-TfiI fragment (mouse/human chimera, UniProt O35608 19-496); assay: ELISA
T4 construct: also called Stu-Tfil 310-400
T4 chain: T3 chain with K386T, G393A, N403S, G410S, T424S, M440Q, R445K

human Ang-2 V345M = biological target: T5, human Ang-2 V345M (human, UniProt O15123 19-496); assay: ELISA
T5 sequence: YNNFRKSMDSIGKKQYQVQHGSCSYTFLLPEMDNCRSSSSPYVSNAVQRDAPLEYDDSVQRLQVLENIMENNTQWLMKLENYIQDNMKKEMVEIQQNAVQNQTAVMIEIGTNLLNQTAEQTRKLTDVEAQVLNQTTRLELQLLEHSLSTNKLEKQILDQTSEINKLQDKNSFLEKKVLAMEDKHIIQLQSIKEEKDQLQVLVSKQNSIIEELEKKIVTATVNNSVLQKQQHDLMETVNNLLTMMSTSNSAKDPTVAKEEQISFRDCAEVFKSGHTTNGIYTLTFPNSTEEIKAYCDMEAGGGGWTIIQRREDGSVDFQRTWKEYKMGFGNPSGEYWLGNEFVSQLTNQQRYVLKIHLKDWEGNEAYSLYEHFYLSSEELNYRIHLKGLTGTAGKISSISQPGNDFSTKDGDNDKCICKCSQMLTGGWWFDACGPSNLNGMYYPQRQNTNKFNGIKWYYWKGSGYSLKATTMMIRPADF

human Ang-2 H375Q = biological target: T6, human Ang-2 H375Q (human, UniProt O15123 19-496); assay: ELISA
T6 sequence: T5 sequence with M326V, H356Q

human Angiopoietin-2 [4] = biological target: T7, human Angiopoietin-2 (human, UniProt O15123 19-496); assay: Biacore, mAb captured
T7 construct: Mostly bought recombinant protein (R&D Systems 623-AM/CF, 623-AN; biotinylated BT623) or supernatant of transfected 293F cells; also called Ang-2; rhAng-2
T7 sequence: T5 sequence with M326V
Method: The label-free surface plasmon resonance (SPR), or Biacore, was utilized to measure the antibody affinity to the antigen. For this purpose, a high-density goat anti-human antibody surface over a CM5 Biacore chip was prepared using routine amine coupling. All the purified mAbs were diluted to approximately 8 μg/ml in HBS-P running buffer containing 100 μg/ml BSA and 10 mg/mL carboxymethyldextran. Each mAb was captured on a separate surface using a 42-second contact time, and a 5-minute wash for stabilization of the mAb baseline.
Data were fit globally to a 1:1 interaction model to determine the binding kinetics.

human Angiopoietin-2 [5] = biological target: T7, human Angiopoietin-2; assay: inhibition of rhAng-2 binding to its receptor
human Angiopoietin-2 [6] = biological target: T7, human Angiopoietin-2; assay: competition ELISA: biotin-Ang-2 on coated Tie2/Fc
Method: 96-well Nunc Immplates™ were coated with 100 μl of recombinant human Tie2/Fc fusion protein (R&D Systems, Inc., Cat. No. 313-TI-100) at 4 μg/ml by incubating overnight at 4° C. The plates were washed four times using Phosphate Buffer Saline (PBS) with a Skan™ Washer 300 station (SKATRON). The wells were blocked by 100 μl of ABX-blocking buffer (0.5% BSA, 0.1% Tween, 0.01% Thimerosal in PBS) for 1 hour.
The plates were incubated at room temperature for two hours before the unbound molecules were washed off. […] After washing twice, the bound Streptavidin was detected by HRP substrate (R&D Systems, Cat. No. DY998). The plates were incubated for 30 minutes before 450 stop solution (100 μl/well, BioFX, Cat# BSTP-0100-01) was added to terminate the reaction. The light absorbance at 450 nm was determined by a Spectramax Plus reader.
Each concentration of the mAb was tested in duplicate. The concentration-response relationship was found by curve fitting using Graphpad Prism™ graphic software (non-linear, Sigmoid curve). The maximal inhibition (efficacy) and IC₅₀ (potency) were calculated by the software.

% of binding to human Ang-2 (human Ang-2443): 100%
% of binding to human Ang-2 [1]: 100%
% of binding to human Ang-2 [2]: 100%
% of binding to human Ang-2 [3]: 100%
% of binding to human Ang-2 (human Ang-2 V345M): 100%
% of binding to human Ang-2 (human Ang-2 H375Q): 100%
kon (human Angiopoietin-2 [4]): 240000 M⁻¹ s⁻¹
OD650 in inhibition assay (human Angiopoietin-2 [5]): 0.0984 OD650
EC50 (human Angiopoietin-2 [6]): 5.97 µg/mL
Efficacy (ratio of bound Ang-2 with mAb 30 µg/ml versus without) (human Angiopoietin-2 [6]): 0.262 ratio
B1: mAb 5.78.3 (antibody, V domains shown)
VH: not shown
VL: DIVMTQSPDSLAVSLGERATINCKSSQSVLYSSNNQNFLAWYQQKPGQPPKLLIYWASTRESGVPDRFSGSGSGTDFTLTISSLQAEDVAVYYCHQYYSTPITFGQGTRLEIKR
notes: Human hybridoma IgG (XenoMouse); the line 5.78 has entries of its own (425, 427); also called 5.78.1; x5.78
